T1: UNK ZnF1-3 (human, UniProt Q9C0B0 31-174)
T1 sequence: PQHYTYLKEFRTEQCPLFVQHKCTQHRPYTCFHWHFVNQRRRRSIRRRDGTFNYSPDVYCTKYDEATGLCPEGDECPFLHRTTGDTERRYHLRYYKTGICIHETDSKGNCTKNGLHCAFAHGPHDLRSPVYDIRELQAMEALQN

B1: 6624856_6638637_1340_3pUTR_ENSMUSG00000041272_ENSMUST00000039987|mouse|control|control (ssRNA)
RNA: GGGAGUUCUACAGUCCGACGAUCCUGGCUGGGCCCAUGGAAUACUGACGGCUUUGAGUUGACCAGCUGGGGUGGCUGAGAUGUCUUAACAUCAACAGGAUCAGUGUAGCUCUUGGAUACAAGGCUGGCUCUGUAUGCUGCUAGCAACAGAGGAUUGAGCAUCA
B2: chr12:15822463:15822464:-_ENSMUSG00000020601_ENSMUST00000020922|mus_hu|FALSE|FALSE (ssRNA)
RNA: GGGAGUUCUACAGUCCGACGAUCUUUAAAAGGGAGCGAGAGGGGAGGGGACAGAAGAGGGGCUGCGUGGAGAAAGAGUUAGAAGCCCCCAAAUGGGCGCCGCCGGAUACCUCGUCUGCUCCGAGCCCGGCUCCCGGGGGUCCUCAACAGAGGAUUGAGCAUCA
B3: chr3:132390928:132390929:+_ENSG00000081307_ENST00000264991|hu_hu|FALSE|FALSE (ssRNA)
RNA: GGGAGUUCUACAGUCCGACGAUCACUGGCUGCACAAACACCUUCUCGUUUCAGAGUCUUUUCAUCAAUAUUUGCAGCAACUACAAGUGGUGGAGCACACGCAAAACAAGCAGAUUCUCCAGGAAUUAUAAGCUGUAUAUGCCCCAACAGAGGAUUGAGCAUCA
B4: chrX:154448470:154448471:+_ENSG00000155959_ENST00000286428|hu_mus|motif|central (ssRNA)
RNA: GGGAGUUCUACAGUCCGACGAUCAUCCAGCUUCUUUAACACUGUAUCUGCAGUCUCAUUCCCAGGCUGCUUCAUGAAAGAAUCGGCAUCUUCCACAAACACUGCUUCAGGAAUCCCUAAGUGGAGCCGCCGCCCGUUUCCAGCCAACAGAGGAUUGAGCAUCA
B5: chrX:70347820:70347821:+_ENSG00000184634_ENST00000374080|hu_mus|FALSE|FALSE (ssRNA)
RNA: GGGAGUUCUACAGUCCGACGAUCGAGCCCCGUGUAGGUGAAAGUGUGAGCGGCAGGGUUCUCCAGAGUGUCAAUCAUGAACUCCGGUGCCCAGCGCAUAUUGGAUUCCGAUGGCUCCACGUUACAGUAGAUGGUGUUCUUCACCAACAGAGGAUUGAGCAUCA
B6: chr3:179287964:179287965:+_ENSG00000136518_ENST00000429709|hu_hu|hu_hu_hu_mus_True|28_78 (ssRNA)
RNA: GGGAGUUCUACAGUCCGACGAUCCUUGAGUGGUGAGAUGGCCUCCAUGUUCUCCCUCGGAACACGCAGGGCAUUGGUGUCUAUGUAGUAGGUGGGCCCGCCCUGCUUGCCUUUAUCACCAUCAAUCUCCAUCAUUGUACUUCCCAACAGAGGAUUGAGCAUCA
B7: chr4:115894766:115894767:+_ENSMUSG00000028698_ENSMUST00000030464|mus_hu|mus_mus_mus_hu_True|1_48 (ssRNA)
RNA: GGGAGUUCUACAGUCCGACGAUCUUCCACACGGAAAUGUACUUCGGGUUUUCCAACGGCCAGUACCAGUCCGGCCAAACUACCCGAUGAGGACAAGCCCCCUCUCUCCUACAGAACACAACAAAAUGCCCCCGAACCCCGAACCAACAGAGGAUUGAGCAUCA
B8: chr14:35777207:35777208:+_ENSG00000100902_ENST00000261479|hu_hu|FALSE|FALSE (ssRNA)
RNA: GGGAGUUCUACAGUCCGACGAUCUUUGUCAGGUACUUUCUUCUGUGUGACAAUUACUGCACAGUCUUUCCCUCUGACAGCUACUGAUGUAAGGCCACCCUGGUUAAUAGCCUUAAAAGCAUAUUCUACUUGGUAGAGCCGACCCAACAGAGGAUUGAGCAUCA
B9: chr1:220276048:220276049:+_ENSG00000067704_ENST00000302637|hu_hu|hu_hu_hu_mus_True|48_58 (ssRNA)
RNA: GGGAGUUCUACAGUCCGACGAUCGCAAAUUGCCUGGUUGGCGGGAAUUGUCCAAGGCUGGGUGGUCCAAACUAAAAUACUAACAGGAGAUGAACCAUCUGUAAGAGACUCCAACUUCGGAGGAGGUCUCAGGAGGGGGAAUCUCAACAGAGGAUUGAGCAUCA
B10: chr7:149068622:149068623:-_ENSMUSG00000025139_ENSMUST00000001950|mus_hu|mus_mus_mus_hu_False|88_88 (ssRNA)
RNA: GGGAGUUCUACAGUCCGACGAUCGUGAGGCCUCUGAGUGUGGCUUGUGCUCUGCAGUGGGUUAGAGUUGUUAAUAUCACGGAACAUACCAUCUAGAACGUUCCAGUCCCGCCUGACACCUUCAUUCCCAAUGGAGAAGAAAUCCAACAGAGGAUUGAGCAUCA
B11: chr3:10015032:10015033:+_ENSMUSG00000027533_ENSMUST00000029046|mus_mus|mus_mus_mus_hu_True|78_108 (ssRNA)
RNA: GGGAGUUCUACAGUCCGACGAUCGUUGUUGCCAUCACAAGUGAUGAUACAAUCUGGCUUGGCCAUGGCGCCCAUUUUUCGCAAAGCUAUUCCCACUCCUAGCUCCUUCAUGUAUUCAUCAAAGCCUUUGCUGUCCACCAGGCGCAACAGAGGAUUGAGCAUCA
B12: chr2:242098653:242098654:+_ENSG00000115685_ENST00000406106|hu_hu|FALSE|FALSE (ssRNA)
RNA: GGGAGUUCUACAGUCCGACGAUCGUCGUAAAGAUCCAGCUCUCGAAGACUCUGUAGCUCCUCCAGAUUCUCAAUGCAUUUAAUUAAAUUUUGGCGGAGGCAGAGAGUCUUCACUUUCUUCAGUACCUCAAAUCCUUCAAUCUUCAACAGAGGAUUGAGCAUCA
B13: chr12:118855022:118855023:+_ENSG00000111707_ENST00000543473|hu_hu|motif|central (ssRNA)
RNA: GGGAGUUCUACAGUCCGACGAUCUACACUGGCCCCAAUUAGAAGUUCAAAAACAAAAAUUAAGUUAGGUAGUCAGACAUCGGUAAAUACUAGUAUCCGCAUGAAUGAAAACACCCUGGCUUUGGUAUGGCUACAGAAAUCCAUCAACAGAGGAUUGAGCAUCA
B14: chr17:64801638:64801639:+_ENSG00000154229_ENST00000413366|hu_mus|hu_hu_hu_mus_False|58_108 (ssRNA)
RNA: GGGAGUUCUACAGUCCGACGAUCUAUAAAUACAUAUACAUAUGUACACAUAUAUAGUAAAACCCUAGUUAAACGUGUAAACUAGCCAUUCAUUUUUAAAAUUACAUCUACAUUAAAAAAUUAAUAUAUCUGAUAGAGUGCCAGCAACAGAGGAUUGAGCAUCA

Some of the results follow.

The assay addresses T1, UNK ZnF1-3. As to the kind of experiment: nsRBNS (natural sequence RNA bind-n-seq); RBNS binding buffer (assumed for nsRBNS): 25 mM Tris pH 7.5, 150 mM KCl, 3 mM MgCl2, 0.01% Triton X-100, 500 ug/ml BSA, 20 U/ml SUPERase-In, 4 C; UNK is unkempt and MSI1 is Musashi-1; names of the RNAs are library labels; protein concentration not given here; high values mean tight binding.
As to B1, the binding signal turned out to be 1.18 enrichment R. The value for B2 was 1.17 enrichment R; that for B3 was 1.53 enrichment R. The value for B4 was 1.32 enrichment R; that for B5 was 0.929 enrichment R; that for B6 was 0.432 enrichment R. B7 yielded a binding signal of 1.04 enrichment R.

As to B8, the binding signal turned out to be 0.543 enrichment R. Take B9: the binding signal amounted to 1.48 enrichment R. The value for B10 was 0.747 enrichment R.

In turn, B11 came in with a binding signal of 0.644 enrichment R. The value for B12 was 0.485 enrichment R; that for B13 was 2.07 enrichment R. B14 gave a binding signal of 1.51 enrichment R.

The values above are taken from publication PMC12136788.
